According to the RNAGym collection of RNA variant scans (doi:10.7554/elife.90254):
Read counts are not given, so values of variants with three or more changes are uncertain.

B1: LINE1-mini (parent)
chain: GGCAGAGCUCAACACAGCGUGGCAAAGUGGCUGUGGCUAGACUGCC

Variants of: B1
Test: self-cleavage, relative activity (ratio to wild type); higher = more cleavage; in vitro, sequencing; the parent is a self-cleaving ribozyme
For G1C C13U G21C G22C A41G, the self-cleavage was 0.03. Variant G1A G19C G22A has a self-cleavage of 0.31. Work on G1A G17U G22A U34C C42A yielded a self-cleavage of 0.07. Variant G1C G7C C45G has a self-cleavage of 0.03. With G1C G5U A39G the self-cleavage was 0. Work on G1C G2A C13U G33A U38A yielded a self-cleavage of 0.01. G1A G19U C37A gave a self-cleavage of 0.01. Work on G1C C10A A39C C46U yielded a self-cleavage of 0.01. Work on G1C U20C G21C U28A C45A yielded a self-cleavage of 0.08. For G1C U9G G27U, the self-cleavage was 0.03. For G1U A4C C8A G35A, the self-cleavage was 0.16. G1C U32G A39U showed a self-cleavage of 0. With G1C A4U G27A U32A the self-cleavage was 0.04. With G1C A4U C13U the self-cleavage was 0.06. With G1A G27A G29A the self-cleavage was 0.47. G1C C15G A39G gave a self-cleavage of 0.02. G1C C23A G29U gave a self-cleavage of 0.41. With G1C G21U A26C G40A the self-cleavage was 0.06. G1C A26C G30A gave a self-cleavage of 0.53. With G1C G35U C37A the self-cleavage was 0.02. Work on G1U A4G G30A U32C yielded a self-cleavage of 0.02. G1C C8A G17C G27U C45U gave a self-cleavage of 0.09. G1C A25C C45U gave a self-cleavage of 0.06. In the case of G1C G35A C42A, the self-cleavage is reported as 0.03. Work on G1C G7U C45U yielded a self-cleavage of 0.01. Work on G1C G2U G36A A39G yielded a self-cleavage of 0.08. With G1A U28G C45A the self-cleavage was 0.29. G1A G19A U28C U32C C42A gave a self-cleavage of 0.04. G1C U9G A16C G17C C18U G30A U43C showed a self-cleavage of 0.02. For G1C C8A C10A A11C C18G G30C G35A, the self-cleavage was 0.01. G1C C13U C42A gave a self-cleavage of 0.01. For G1A G5C G7U G22A G30U U34A, the self-cleavage was 0.22. Variant G1A G17C G21A A25C G30C G33U U34C has a self-cleavage of 0.11. Variant G1C A12U G22C U43G has a self-cleavage of 0.01. G1C C8A A11G gave a self-cleavage of 0. For G1C A14G G30U, the self-cleavage was 0.01. For G1A G21U G22A, the self-cleavage was 1.74. Variant G1A G22C C31G U32G U34C has a self-cleavage of 0.08. Work on G1C C31G G33U yielded a self-cleavage of 0.02. For G1C A11U G44U, the self-cleavage was 0.01. G1A G22U U28C G29C G36C gave a self-cleavage of 0.04. G1C G7C A26U C31U gave a self-cleavage of 0.01. G1C G7C A12U A24C C31U G36U gave a self-cleavage of 0.01. G1C G17A A41C C45U showed a self-cleavage of 0.01. G1C G5U A6G A26G showed a self-cleavage of 0.03. G1A U9G A24U showed a self-cleavage of 0.57. For G1C A4U C13G G21U, the self-cleavage was 0.05. Variant G1C A16G C23G G36U has a self-cleavage of 0.02. G1C G21A U32A gave a self-cleavage of 0.02. In the case of G1C A25C G29A G30C G35A A39U, the self-cleavage is reported as 0.03. In the case of G1A G7U G17C G29C G35U, the self-cleavage is reported as 0.03. G1A G36U A41C gave a self-cleavage of 0.06. Work on G1C C8U A11U G21A A41U yielded a self-cleavage of 0.01. G1C A6U G7A C15U G44U C45U showed a self-cleavage of 0.01. Variant G1C G27U G30C G40A has a self-cleavage of 0. G1C G2A C3G C13U showed a self-cleavage of 0.12. In the case of G1C G5C G35C C37U, the self-cleavage is reported as 0. Variant G1A G7U U9A C13U A14U C15A has a self-cleavage of 0.29. Variant G1C G7U C13A U43C C46A has a self-cleavage of 0.03. G1A U32C A41C showed a self-cleavage of 0.09. With G1C A16U C23G U43A the self-cleavage was 0. For G1C G7C C31G, the self-cleavage was 0.04. In the case of G1C G2C C31U G44U, the self-cleavage is reported as 0.06. In the case of G1C G5A C15A A41G, the self-cleavage is reported as 0.03. G1A G22A G40A gave a self-cleavage of 0.11. In the case of G1C C8U G36C, the self-cleavage is reported as 0.04. For G1A U9G G27C, the self-cleavage was 0.23. For G1A G7A G22A A24U A39G, the self-cleavage was 0.07. Work on G1C G5A C23A C37G C45U yielded a self-cleavage of 0.04. Work on G1C C8A G19A G21U A24U A41C yielded a self-cleavage of 0.06. G1C G19C C45U showed a self-cleavage of 0.27. With G1C G33A C37G the self-cleavage was 0.01. G1C G5C A16G G17U U32A U38A C46A gave a self-cleavage of 0.01. G1C G2C A12U C13A A26U showed a self-cleavage of 0.05. In the case of G1C G7A C13G U38C C42G, the self-cleavage is reported as 0.2. In the case of G1C G19U U43C, the self-cleavage is reported as 0.02. Work on G1C A12C A16C yielded a self-cleavage of 0. Variant G1A U9C C10A C37U G44A has a self-cleavage of 0.05. G1A G2C A12G G21U C23G U28C G35C A39U gave a self-cleavage of 0.01. With G1A G5U C8U C18A the self-cleavage was 0.56. For G1C C13G G27A U32A, the self-cleavage was 0.01. G1C C3A A12G A14C A16G G29U showed a self-cleavage of 0.02. In the case of G1C U20G G27A C46A, the self-cleavage is reported as 0.03. With G1A G7A U9G the self-cleavage was 0.23. Work on G1A G5A G7A C23A yielded a self-cleavage of 1.35. For G1C A16C C23G G36C G44C, the self-cleavage was 0.01. In the case of G1A G5U G22C U32A C45G, the self-cleavage is reported as 0.04. Variant G1C A6U A12C A26C G36U has a self-cleavage of 0. G1A G33U C45G showed a self-cleavage of 0.05. Work on G1C G2U C10U G19A yielded a self-cleavage of 0.05. Variant G1C A25G A39C C42A has a self-cleavage of 0. Work on G1C C18G A26G A41U yielded a self-cleavage of 0. G1C A4C C42U gave a self-cleavage of 0.05. Work on G1C G17A C23G yielded a self-cleavage of 0.01. Work on G1C A24G G29A yielded a self-cleavage of 0.09. G1C A26G G33A U34C C37U G40C showed a self-cleavage of 0. G1C G5A G7A A41U C46U showed a self-cleavage of 0.11. G1A G7A A16C A26C G36U showed a self-cleavage of 1.7. Variant G1C G5A C13A U34A C37G has a self-cleavage of 0.06. Work on G1C G17C U32A C37G yielded a self-cleavage of 0.02. Variant G1C G30C G36A C37A has a self-cleavage of 0. Work on G1C A12U G17A A39U yielded a self-cleavage of 0.01. G1C C8A C15U gave a self-cleavage of 0.04. Variant G1C C3G C8A C13G A25C U28G has a self-cleavage of 0.16. G1A G2U A12U C23A A25U G30C C42A gave a self-cleavage of 0.01. For G1C A6C A11C, the self-cleavage was 0.01. For G1A G17A A26C C37U, the self-cleavage was 0.02. G1C A4U G33U gave a self-cleavage of 0.02. In the case of G1C C8A C46U, the self-cleavage is reported as 0.01. G1C G30U U32A U38C C42U U43C showed a self-cleavage of 0.01. Work on G1C C10A G19A C23U C31A yielded a self-cleavage of 0.01. Work on G1U A4C C18G U20A yielded a self-cleavage of 0.05. In the case of G1C G33U C42U, the self-cleavage is reported as 0.02. G1C A14U G40C G44U gave a self-cleavage of 0. In the case of G1C C15G U20G, the self-cleavage is reported as 0.02. G1C C31G U34C C37U C46A gave a self-cleavage of 0. G1A G27C U32C showed a self-cleavage of 0.07. With G1C G29C C31U the self-cleavage was 0.18. G1C A4G C15A showed a self-cleavage of 0.2. G1C C3G A14G showed a self-cleavage of 0.03. Variant G1C C23U G27U C42A C46G has a self-cleavage of 0.03. Variant G1A G5U C10A G17U has a self-cleavage of 0.04. In the case of G1C C3U U9C, the self-cleavage is reported as 0.07. With G1C C8U A26G G29U the self-cleavage was 0.09. Work on G1A G21C C45A yielded a self-cleavage of 2.56. G1C C3G A11G U28A G36C U38A C42U gave a self-cleavage of 0.01. G1C C18G G22U G44C gave a self-cleavage of 0.01. G1U A4G G35A showed a self-cleavage of 0.2. G1A G22C G27A C31A U34G A39U gave a self-cleavage of 0.03. With G1C U9C C10U C15A G35U G44A the self-cleavage was 0.01. G1C C3U U38A gave a self-cleavage of 0.14. G1C C18A C31G showed a self-cleavage of 0.02. In the case of G1C G17U C18U G44C, the self-cleavage is reported as 0.01. G1C U38A C46G gave a self-cleavage of 0.04. Work on G1U A4G A41G G44C yielded a self-cleavage of 0.03. Variant G1C C37G G40C has a self-cleavage of 0.03. Variant G1A G5U U9G G30A has a self-cleavage of 0.07. For G1A G5U G7C G19A G22U, the self-cleavage was 0.22. G1C G19A A41U C42A showed a self-cleavage of 0.21. In the case of G1A G19A G30C, the self-cleavage is reported as 0.65. G1A G19A G30U showed a self-cleavage of 1.62. In the case of G1C A6U A16C C23U, the self-cleavage is reported as 0.06. With G1C C3A C37G G40A the self-cleavage was 0.1. G1C A25C G40U U43G showed a self-cleavage of 0.02. Variant G1C A6U G22U U32C G40A has a self-cleavage of 0.01. Work on G1C C23A C31G yielded a self-cleavage of 0.02. For G1C A11U A12U U32G G36C G40A, the self-cleavage was 0.01. Work on G1C G19U G22U C23A A25U yielded a self-cleavage of 0.14. For G1A G7A A24U, the self-cleavage was 0.38. In the case of G1C A6U C15U A41G, the self-cleavage is reported as 0.22. Work on G1C A16U G21C G40A yielded a self-cleavage of 0. Variant G1C C31A U38A A39C G40U has a self-cleavage of 0.01. G1C G27C C45A gave a self-cleavage of 0.08. G1C U9C A25G U34C U38G gave a self-cleavage of 0.01. For G1A G21C A24G, the self-cleavage was 0.97. G1C G30A C31A G40U gave a self-cleavage of 0.02. Work on G1C U32G C46G yielded a self-cleavage of 0.03. Variant G1U A4C G27U U28A A41G has a self-cleavage of 0.01. G1C A6G G19U G21A G29C U38C G40A showed a self-cleavage of 0.02. In the case of G1C G29A C42U, the self-cleavage is reported as 0.01. With G1A G5C A6C G17U the self-cleavage was 0.18. G1C G7U C18G U34C gave a self-cleavage of 0.03. G1C A25U C37G U38C C42A C45A gave a self-cleavage of 0. For G1A U9G A16G G21A, the self-cleavage was 0.16. G1A G7U A12C C15G G30C A39U showed a self-cleavage of 0.03. G1A G7C U38C G40U showed a self-cleavage of 0.18. In the case of G1A G2C G7A G30U, the self-cleavage is reported as 1.13.
